Laboratory results reported in PMC6664820, “Novel natural and synthetic inhibitors of solute carriers SGLT1 and SGLT2” (Pharmacology Research & Perspectives, 2019).
Out of some 1,900 compounds screened, about 40 (2%) showed an effect of 50% or more. Some of the results follow.

molecular target: human SGLT1 (hSGLT1) (human, UniProt P13866); experiment: primary screen, percent of control activity; higher = less effect of the substance; set-up: single well; conditions: 50 µM
Summary of the method: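 Single-point screen at 50 µmol/L in CHO-hSGLT1 cells, with 160 µmol/L 1-NBD-glucose in glucose-free DMEM for 90 min at 37°C. Fluorescence from isopropanol extracts was calibrated, and CHO wild-type uptake was subtracted. Data are percent of uptake without compound.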

Chain of human SGLT1 (hSGLT1) (P13866 whole entry, looked up): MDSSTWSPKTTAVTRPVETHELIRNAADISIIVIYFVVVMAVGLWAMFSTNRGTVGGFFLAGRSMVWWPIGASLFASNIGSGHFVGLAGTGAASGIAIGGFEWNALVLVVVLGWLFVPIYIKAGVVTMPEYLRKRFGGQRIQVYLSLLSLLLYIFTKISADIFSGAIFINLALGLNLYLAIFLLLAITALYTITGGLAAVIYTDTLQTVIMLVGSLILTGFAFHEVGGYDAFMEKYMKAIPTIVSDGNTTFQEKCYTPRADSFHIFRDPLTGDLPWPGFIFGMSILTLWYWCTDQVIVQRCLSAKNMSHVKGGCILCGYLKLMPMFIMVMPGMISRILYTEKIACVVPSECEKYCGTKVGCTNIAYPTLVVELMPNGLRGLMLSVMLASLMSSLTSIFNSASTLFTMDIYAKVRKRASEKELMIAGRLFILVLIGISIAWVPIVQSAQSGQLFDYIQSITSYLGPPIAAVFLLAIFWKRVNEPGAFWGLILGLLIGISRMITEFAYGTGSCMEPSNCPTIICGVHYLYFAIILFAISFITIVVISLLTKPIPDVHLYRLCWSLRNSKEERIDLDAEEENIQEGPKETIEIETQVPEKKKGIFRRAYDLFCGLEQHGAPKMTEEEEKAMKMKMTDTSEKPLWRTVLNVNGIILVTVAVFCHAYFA

Compound | NORMALIZED SGLT1 ACTIVITY (%)
Cc1cccc(Nc2ccncc2S(=O)(=O)NC(=O)NC(C)C)c1 | 79%
C1CCN2C[C@@H]3C[C@H](CN4CCCC[C@@H]34)[C@H]2C1.I | 69%
COc1ccc([C@H]2COc3c(ccc(O)c3OC)C2)c(OC)c1O | 120%
C=C(C)[C@@H]1CC[C@]2(CO)CC[C@]3(C)[C@H](CC[C@@H]4[C@@]5(C)CC[C@H](O)C(C)(C)[C@@H]5CC[C@]43C)[C@@H]12 | 93%
Nc1ccc(S(N)(=O)=O)cc1 | 207%
CC(=O)O[C@H]1C(=O)[C@@]2(C)[C@H]([C@H](OC(=O)c3ccccc3)[C@]3(O)C[C@H](OC(=O)[C@H](O)[C@@H](NC(=O)c4ccccc4)c4ccccc4)C(C)=C1C3(C)C)[C@]1(OC(C)=O)CO[C@@H]1C[C@@H]2O | 90%
CC(=O)OCC(=O)[C@@]1(O)CCC2C3CC[C@@H]4C[C@H](OC(C)=O)CC[C@]4(C)C3C(=O)C[C@@]21C (stereo partly drawn) | 106%
O=C1c2cccc(O)c2C(=O)c2c(O)cccc21 | 137%
COc1cc2c(cc1OC)-c1cc3ccc(OC)c(OC)c3c[n+]1CC2.O | 109%
O=C1OC(c2ccc(O)cc2)(c2ccc(O)cc2)c2ccccc21 | 276%
NS(=O)(=O)c1cc2c(cc1Cl)NCNS2(=O)=O | 105%
NS(=O)(=O)c1cc2c(cc1Cl)N=C(CSCc1ccccc1)NS2(=O)=O | 102%
NC(=O)c1cnccn1 | 87%
COc1ccc(-c2oc3ccccc3c(=O)c2O)cc1OC | 109%
CC(=O)c1ccc[nH]1 | 85%
COc1ccc2[nH]cc(CCNC(C)=O)c2c1 | 199%
CC1(C)C2(Cl)C(Cl)C(Cl)C(Cl)(C(Cl)Cl)C1(Cl)C2Cl (stereo not drawn) | 72%
[Na+].[Na+].[O-]c1c(Cl)cc(Cl)cc1Sc1cc(Cl)cc(Cl)c1[O-] | 221%
Nc1ccc(S(=O)(=O)Nc2nccs2)cc1 | 117%
CC(=O)O[C@H]1C[C@@H](OC(C)=O)C(C)(C)C2C[C@@H](OC(C)=O)[C@]3(C)C(CC[C@@]4(C)[C@H](c5ccoc5)OC(=O)[C@H]5O[C@]543)[C@]21C (stereo partly drawn) | 132%
CC(C)c1c(O)ccc2c1CCC1[C@@](C)(CO)CCC[C@]21C (stereo partly drawn) | 160%
CC(=O)NCCCCCC(=O)O | 105%
O=C(O)c1cccnc1Nc1cccc(C(F)(F)F)c1 | 224%
CCC(C)C(=O)c1c(O)c(C)c2oc3c(C)c(O)c(C(=O)C(C)CC)c(O)c3c2c1O (stereo not drawn) | 188%

Compound | NORMALIZED SGLT1 ACTIVITY (%)
COc1cc(C/C=C/c2ccccc2)c(OC)cc1O | 145%
COC1=CC(=O)C(O)=C/C1=C\C=C\c1ccccc1 | 112%
COC(=O)c1c(C)cc(OC(=O)c2c(C)cc(O)c(C=O)c2O)c(C)c1O | 95%
COc1cccc(-c2cc(=O)c3cc(OC)ccc3o2)c1 | 154%
Cl.NCCc1cc(O)c(O)cc1O | 118%
CC(Oc1ccccc1)C(=O)N[C@@H]1C(=O)N2[C@@H]1SC(C)(C)[C@@H]2C(=O)[O-].[K+] (stereo partly drawn) | 106%
CC(C)C(C)/C=C/C(C)[C@H]1CCC2C3=CCC4CC(=O)CC[C@]4(C)C3CC[C@@]21C (stereo partly drawn) | 82%
CC(=O)OC1CCC23CC1(C)CCC2C(C)(C)CC3OC(C)=O (stereo not drawn) | 91%
CC(C)(C)NCC(O)COc1cccc2c1C[C@H](O)[C@H](O)C2 (stereo partly drawn) | 85%
O=C(O)c1nc2cc(Cl)c(Cl)cc2nc1O | 100%
CC(C(=O)O)c1cccc(Oc2ccccc2)c1 (stereo not drawn) | 177%
CC(=O)N[C@@H](Cc1c[nH]c2ccccc12)C(=O)O | 95%
C=C[C@@](C)(O)CCC1C(=C)CCC2[C@@](C)(CO)CCC[C@]12C (stereo partly drawn) | 85%
Nc1ccn(C2O[C@H](CO)[C@@H](O)[C@H]2O)c(=O)n1 (stereo partly drawn) | 107%
CCC(=O)O[C@H]1CCC2C3CCC4=CC(=O)CC[C@]4(C)C3CC[C@@]21C (stereo partly drawn) | 69%
COc1cc([C@@H]2c3cc4c(cc3[C@H](O)[C@H]3COC(=O)[C@@H]23)OCO4)cc(OC)c1OC | 99%
C[C@]12CCC(=O)C=C1CCC1C2C(=O)C[C@@]2(C)C1CC[C@]2(O)C(=O)CO (stereo partly drawn) | 222%
Br.COC(=O)C1=CCCN(C)C1 | 81%
C#CCCCCCCCCCCCC(O)CC(O)CO.C=CCCCCCCCCCCCC(O)CC(O)CO (stereo not drawn) | 147%
CCN(CC)CC(=O)Nc1c(C)cccc1C.Cl | 72%
COc1cc2ccc(=O)oc2c(OC)c1OC | 257%
N#C/C(=C\c1ccc(O)cc1)C(=O)O | 120%
Oc1ccc2c(c1)OC[C@]1(O)Cc3cc(O)c(O)cc3[C@H]21 | 153%
CC(C)=CC1C(C(=O)O)C1(C)C (stereo not drawn) | 148%
